# Among all 420,000 compounds or so, about 50,000 (12%) were called active. Inconclusive results, whose numbers are uncertain, are shown with a selection of clear calls. Calls follow the shape of the dose curve; as a rule, active = well fitted inhibition curve with a large enough effect; inconclusive = small, poorly fitted or top-dose-only effect; inactive = flat fitted curve, though single readings scatter. No potency is given beside an inconclusive call; the fits are too rough.
# Assay: qHTS for Inhibitors of human tyrosyl-DNA phosphodiesterase 1 (TDP1): qHTS in cells in presence of CPT; also: nearly all actives have a fitted effect of over 55% in size
# Conditions: chicken DT40 Tdp1-/-;hTDP1 cells + 20 nM CPT, ATP luminescence, 48 h; activity change, negative = growth inhibition: at 46.2 µM (top of the series) unless noted
# Outline: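 Cell growth measured by CellTiter-Glo luminescence after a minimum 48 h, 37 C compound exposure with 20 nM CPT in Tdp1-knockout DT40 cells stably expressing hTDP1, seeded 400/well; qHTS titration format.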
# % is scaled to controls: 0 for no effect and ±100 for the full control effect; potency is read from the fitted curve at half-maximal effect; tags tell the direction and shape of the fitted curve.
Structure (SMILES),Potency,"activity change, negative = growth inhibition"
Cc1nc2sc(C(c3ccco3)N3CCN(c4cccc(Cl)c4)CC3)c(O)n2n1 (configuration not stated),"inconclusive [inhibitor, single point]",
Cc1ccccc1Nc1c(-c2ccc(O)cc2)nc2c(C)cccn12,active: 16.4 µM,
CC(=O)Nc1cc(C(F)(F)F)ccc1OCCOc1ccccc1,"inconclusive [inhibitor, single point]",
O=C(NC1CCCCC1)C(c1cccnc1)N(C(=O)c1ccc(Cl)nc1)C1CCCCC1 (configuration not stated),,inactive: -9.09%
COc1cccc(CNC(=O)CSc2nnc(C)c3c(C)n(-c4ccccc4)nc23)c1,"inconclusive [inhibitor, single point]",
Cc1ccnc2c(N)cccc12,"inconclusive [inhibitor, single point]",
COc1cc(/C=N/NC(=O)c2cc(C)oc2C)cc(OC)c1OC,,inconclusive: -29.6% [inhibitor]
Cc1cccc(Cn2cnc3c(nnn3Cc3ccccc3F)c2=O)c1,"inconclusive [inhibitor, single point]",
CC1CCCC(NC(=O)COC(=O)c2n[nH]c3ccccc23)C1C (configuration not stated),"inconclusive [inhibitor, single point]",
O=C(CN1CCN(c2nc(-c3ccc(Cl)cc3)cs2)CC1)NCc1ccco1,"inconclusive [inhibitor, partial curve]",
COc1cc2c(N3CCN(C(=O)Nc4ccc(OC(C)C)cc4)CC3)ncnc2cc1OCCCN1CCCCC1,"inconclusive [inhibitor, single point]",
Cc1ccc(S(=O)(=O)N2C[C@H]3C(=O)C[C@@H](c4ccccc4)N(S(=O)(=O)c4ccc(C)cc4)[C@H]3C[C@H]2c2cccc3ccccc23)cc1,,inactive: 7.05%
COc1cccc(NC(=O)CCS(=O)(=O)c2cc3c(cc2Cl)NC(=O)CO3)c1,,inactive: -8.43%
c1ccc2c(c1)oc1c(-c3ccc4nccn4c3)cccc12,"inconclusive [inhibitor, single point]",
CCC(C(=O)Nc1ccc(F)cc1F)n1nc(-c2ccccc2)c2c(c1=O)CCCC2 (configuration not stated),"inconclusive [inhibitor, single point]",
Nc1nc(NCc2ccccc2)nc(-c2ccccc2)n1,"inconclusive [inhibitor, single point]",
c1ccc(-c2nnc(SCC3CCCO3)nc2-c2ccccc2)cc1 (configuration not stated),"inconclusive [inhibitor, single point]",
CCCN1CCC(=O)N(CCSc2ccccc2)CC1,"inconclusive [inhibitor, single point]",
COc1ccc(NC(=O)CCS(=O)(=O)c2cc3c4c(c2)CCN4C(=O)CC3)cc1OC,,inactive: -15.7%
COc1ccc(N2CCN(C(c3cccc(OC)c3OC)c3nnnn3C3CCCC3)CC2)cc1 (configuration not stated),"inconclusive [inhibitor, partial curve, poor fit]",
CCOC(=O)C1=C(CSc2nc(-c3ccncc3)ccc2C#N)OC(N)=C(C#N)C1c1cccnc1 (configuration not stated),,inactive: -17.1%
CCCCCCOc1ccc(NC(=O)CC2C(=O)N(CC)C(=S)N2Cc2ccco2)cc1 (configuration not stated),"inconclusive [inhibitor, single point]",
Cc1cccc(-c2c3c(nc4c2c(=O)n(C)c(=O)n4C)-c2ccccc2C3O)c1 (configuration not stated),active: 5.8 µM,

Structure (SMILES),Potency,"activity change, negative = growth inhibition"
CCOc1ccccc1C(=O)N1CCC(C(=O)c2ccc(F)cc2)CC1,"inconclusive [inhibitor, partial curve]",
O=C(N/N=C/c1ccc(O)cc1)c1cc(C2CC2)[nH]n1,"inconclusive [inhibitor, single point]",
CC(=O)N1c2ccccc2CC1C(=O)N1CCN(c2cc(Cl)ccc2C)CC1 (configuration not stated),"inconclusive [inhibitor, single point]",
CCCS(=O)(=O)N1CCCC(c2nc(-c3ccc(OC)cc3)no2)C1 (configuration not stated),,inactive: -27.3%
COc1ccc(Cl)cc1S(=O)(=O)N1CCC(c2ccncc2)CC1,"inconclusive [inhibitor, single point]",
Cc1ccc(-c2nnn(C/C(N)=N/O)n2)cc1,,inactive: 9.61%
Cc1ccc(-c2noc(CCC(=O)Nc3ccccc3N3CCN(C)CC3)n2)cc1,"inconclusive [inhibitor, single point]",
C/C(=N\NC(=S)Nc1ccc(C)cc1)c1cccc(N)c1,"inconclusive [inhibitor, single point]",
CC(=O)Oc1ccc(C(=O)[C@H]2[C@H]3C(=O)N(c4cccc5ccccc45)C(=O)[C@H]3[C@@H]3C=CC=NN32)cc1,"inconclusive [inhibitor, single point]",
CNC(=S)N(CCc1ccc(S(N)(=O)=O)cc1)C1CC(=O)N(c2ccccc2F)C1=O (configuration not stated),"inconclusive [inhibitor, single point]",
COc1ccc(NC(=O)COc2ccccc2C#N)c(S(=O)(=O)N2CCCCC2)c1,"inconclusive [inhibitor, single point]",
Nc1cc(N)cc(-c2nc3ccccc3o2)c1,,inconclusive: -30.4% [inhibitor]
CCOc1ccc(NC(=O)c2c(NC(=O)c3ccncc3)sc3c2CCC(C(C)(C)C)C3)cc1 (configuration not stated),"inconclusive [inhibitor, single point]",
CCN(CC)S(=O)(=O)c1ccc(S(=O)(=O)Nc2c(C)nn(C)c2C)cc1,active: 6.51 µM,
Cc1ccc(C(=O)N[C@H](C(=O)OCC(=O)Nc2cccc(S(N)(=O)=O)c2)C(C)C)cc1,"inconclusive [inhibitor, single point]",
CCOC(=O)C1=C(C)N(C)C(=O)NC1c1ccccc1OC (configuration not stated),"inconclusive [inhibitor, partial curve]",
COc1cccc(C(=O)C2CN(c3ccccc3)CC2c2ccc(Cl)cc2)c1 (configuration not stated),"inconclusive [inhibitor, partial curve, poor fit]",
CN(C)CC(C)(O)c1ccc2c(c1)CN(C(=O)c1ccc(-n3cccn3)cc1)CCO2 (configuration not stated),,inactive: 5.39% [at 9.04 µM]
O=C(c1ccc(F)cc1)N1CCN(CCc2ccncc2)CC1,,inactive: -14.5%
COc1ccc(-c2nnc(SCC(=O)Nc3ccc(C)c(Cl)c3)nc2-c2ccc(OC)c(OC)c2)cc1OC,"inconclusive [inhibitor, single point]",
CCOC(=O)Cn1c(=O)c2c(nc(N3CCOCC3)n2C)n(C)c1=O,,inactive: -3.57%
Cc1cccc(OCC(=O)NCc2ccc3c(c2)CCN3C(=O)c2ccc(Cl)cc2)c1,,inactive: -3.94%
O=C(c1cccn1-c1nnc(N2CCCC2)s1)N1CCN(c2ccc(F)cc2)CC1,active: 16.4 µM,

Structure (SMILES),Potency,"activity change, negative = growth inhibition"
O=C(NCCc1ccccc1)C(=O)NCCC1CCCCN1S(=O)(=O)c1ccccc1 (configuration not stated),"inconclusive [inhibitor, single point]",
COc1ccc(N2CCN(CCCNC(=O)c3ccc(CS(=O)(=O)c4ccc(Cl)cc4)o3)CC2)cc1,"inconclusive [inhibitor, single point]",
CCCCn1c(N)c(N(CC(C)C)C(=O)c2ccc([N+](=O)[O-])o2)c(=O)[nH]c1=O,,inactive: -7.87%
Cc1ccc(Sc2ccc(CN3CCCCC3)cc2[N+](=O)[O-])cc1,active: 18.4 µM,
O=C(NC1CCCCC1)C(c1cccc2ccccc12)n1c(=O)c(-c2ccco2)nc2ccccc21 (configuration not stated),active: 16.4 µM,
O=c1oc2ccccc2c(Nc2cc3ccccc3cc2O)c1[N+](=O)[O-],active: 5.8 µM,
Cc1ccccc1S(=O)(=O)Cc1ccc(C(=O)NCCN(Cc2ccccc2)C(C)C)o1,"inconclusive [inhibitor, single point]",
C=CCn1c(-c2cc3cccc(OC)c3o2)n[nH]c1=S,"inconclusive [inhibitor, single point]",
O=C(Cn1cc(SCc2ccc(Cl)cc2)c2ccccc21)N1CCCC1,"inconclusive [inhibitor, single point]",
CC(C)=CCN1CCN(Cc2cn(C(C)C)c3ccccc23)CC1CCO (configuration not stated),active: 18.4 µM,
O=C(CSc1nnc(-c2cccs2)n1-c1cccc(Cl)c1)c1cccc2c1OCCO2,"inconclusive [inhibitor, single point]",
C=CCn1c(-c2ccco2)n[nH]c1=S,,inactive: -0.424%
COc1ccc(OC2(C)CCN(Cc3ccccc3OC(F)F)C2)cc1 (configuration not stated),"inconclusive [inhibitor, single point]",
Cc1cc(OCCN2CCN(S(=O)(=O)c3ccccc3F)CC2)ccc1C(C)C,active: 20.6 µM,
CC(C)CC(N)c1csc(NC(=O)Nc2ccccc2C(C)(C)C)n1 (configuration not stated),"inconclusive [inhibitor, single point]",
Cc1ccc(C(=O)NCCCNC(=O)COc2ccc(Cl)c(C)c2)cn1,"inconclusive [inhibitor, single point]",
O=C(Cc1ccccc1[N+](=O)[O-])N/N=C/c1cccnc1,,inactive: -23.8%
CCN(Cc1ccccc1)C(=O)c1cccc(S(=O)(=O)N2CCN(c3ccccc3)CC2)c1,active: 16.4 µM,
CCCCNC(=O)c1cc2nc(-c3ccc(OC)cc3)cc(C(F)(F)F)n2n1,"inconclusive [inhibitor, single point]",
N#CCCn1nc(-c2ccccc2)cc1Nc1ccccc1NC(=O)c1cccs1,"inconclusive [inhibitor, single point]",
CN(CC(=O)Nc1ccc(Cl)c(Cl)c1)CC(=O)N1CCCCCC1,"inconclusive [inhibitor, single point]",

# — PubChem BioAssay AID686979 (National Center for Advancing Translational Sciences (NCATS), 2013)
